A value given as a limit tells only on which side of the number the result lay.

In this assay the target is Noro protease (Norovirus, UniProt Q83883). In words: Norovirus protease inhibition assay (Noro-Norwalk FRET protease assay). The following applies: IC50 (μM), peptide substrate 10 μM, 90 minutes at 37° C., compounds 200 μM to 10.2 nM.
In turn, `CC(C)(c1cccc(Cl)c1)C(OC(=O)N[C@@H](CC1CCCCC1)C(=O)N[C@H](C=O)C[C@@H]1CCNC1=O)c1ccc2ccccc2c1` (stereo partly shown) [Compound C127] yielded a half-inhibitory concentration (IC50) of 5.7 µM.
In turn, `CC(C)CN1C(=O)N[C@@H](C[C@@H]2CCNC2=O)C(O)N1C(=O)OCc1ccccc1` (stereo partly drawn) [Compound C129, Benzyl (5S)-6-hydroxy-2-isobutyl-3-oxo-5-(((S)-2-oxopyrrolidin-3-yl)methyl)-1,2,4-triazinane-1-carboxylate] registered a half-maximal inhibitory concentration (IC50) above 200 µM.
`CC(C)(c1cccc(Cl)c1)C(OC(=O)N[C@@H](CC1CCCCC1)C(=O)N[C@@H](C[C@@H]1CCNC1=O)C(=O)C(N)=O)c1ccc2c(c1)CCC2` (stereo partly drawn) [Compound C131, 2-(3-Chlorophenyl)-1-(2,3-dihydro-1H-inden-5-yl)-2-methylpropyl ((S)-1-(((S)-4-amino-3,4-dioxo-1-((S)-2-oxopyrrolidin-3-yl)butan-2-yl)amino)-3-cyclohexyl-1-oxopropan-2-yl)carbamate] returned an IC50 of 193 µM.
For `CC(C)(c1cccc(Cl)c1)C(OC(=O)N[C@@H](CC1CCCCC1)C(=O)N[C@H](C=O)C[C@@H]1CCNC1=O)c1ccc2c(c1)CCC2` (stereo partly drawn) [Compound C132, 2-(3-Chlorophenyl)-1-(2,3-dihydro-1H-inden-5-yl)-2-methylpropyl ((S)-3-cyclohexyl-1-oxo-1-(((S)-1-oxo-3-((S)-2-oxopyrrolidin-3-yl)propan-2-yl)amino)propan-2-yl)carbamate] the value was 6 µM; for `COc1cccc2[nH]c(C(=O)N[C@@H](CC3CCCCC3)C(=O)NC(C=O)CC3CC4(CCN(C(C)=O)CC4)NC3=O)cc12` (stereo partly drawn) [Compound C133, N-((2S)-1-((1-(8-acetyl-2-oxo-1,8-diazaspiro[4.5]decan-3-yl)-3-oxopropan-2-yl)amino)-3-cyclohexyl-1-oxopropan-2-yl)-4-methoxy-1H-indole-2-carboxamide], 0.743 µM.
For `CC(C)(c1cccc(Cl)c1)C(OC(=O)N[C@@H](CC1CCCCC1)C(=O)N[C@@H](C[C@@H]1CCNC1=O)C(=O)C(N)=O)c1ccc(Cl)cc1` (stereo partly drawn) [Compound C134, 2-(3-Chlorophenyl)-1-(4-chlorophenyl)-2-methylpropyl ((S)-1-(((S)-4-amino-3,4-dioxo-1-((S)-2-oxopyrrolidin-3-yl)butan-2-yl)amino)-3-cyclohexyl-1-oxopropan-2-yl)carbamate] the value was 171 µM; for `CC(C)(c1cccc(Cl)c1)C(OC(=O)N[C@@H](CC1CCCCC1)C(=O)N[C@@H](C[C@@H]1CCNC1=O)C(=O)C(N)=O)c1ccc(F)cc1` (stereo partly drawn) [Compound C135, 2-(3-Chlorophenyl)-1-(4-fluorophenyl)-2-methylpropyl ((S)-1-(((S)-4-amino-3,4-dioxo-1-((S)-2-oxopyrrolidin-3-yl)butan-2-yl)amino)-3-cyclohexyl-1-oxopropan-2-yl) carbamate], 192 µM; for `Cc1cccc(C(OC(=O)N[C@@H](CC2CCCCC2)C(=O)N[C@H](C=O)C[C@@H]2CCNC2=O)C(C)(C)c2cccc(Cl)c2)c1` (stereo partly drawn) [Compound C136, 2-(3-Chlorophenyl)-2-methyl-1-(m-tolyl) propyl ((S)-3-cyclohexyl-1-oxo-1-(((S)-1-oxo-3-((S)-2-oxopyrrolidin-3-yl)propan-2-yl)amino)propan-2-yl) carbamate], 3.2 µM.
For the compound `CC(C)(c1cccc(Cl)c1)C(OC(=O)N[C@@H](CC1CCCCC1)C(=O)N[C@H](C=O)C[C@@H]1CCNC1=O)c1ccc(F)cc1` (stereo partly drawn) [Compound C137, 2-(3-Chlorophenyl)-1-(4-fluorophenyl)-2-methylpropyl ((S)-3-cyclohexyl-1-oxo-1-(((S)-1-oxo-3-((S)-2-oxopyrrolidin-3-yl)propan-2-yl)amino)propan-2-yl) carbamate], half-maximal inhibition (IC50) required 9.9 µM.
With `CC(C)C(=O)N1CCC2(CC1)CC(CC(NC(=O)[C@H](CC1CCCCC1)NC(=O)c1cc3ccccc3[nH]1)C(=O)C(N)=O)C(=O)N2` (stereo partly drawn) [Compound C138, N-((2S)-1-((4-amino-1-(8-isobutyryl-2-oxo-1,8-diazaspiro[4.5]decan-3-yl)-3,4-dioxobutan-2-yl)amino)-3-cyclohexyl-1-oxopropan-2-yl)-1H-indole-2-carboxamide], the IC50 is 92.9 µM.

The values above are taken from US20230159453A1 (COCRYSTAL PHARMA, INC., priority 2020, published 2023).
